The other results are listed elsewhere or left out. Sequences were assembled here from the parent chain. Values near 0.05 are background.
B1: TEV protease; numbered along this chain (parent)
chain: MGESLFKGPRDYNPISSSICHLTNESDGHTTSLYGIGFGPFIITNKHLFRRNNGTLVVQSLHGVFKVKDTTTLQQHLVDGRDMIIIRMPKDFPPFPQKLKFREPQREERICLVTTNFQTKSMSSMVSDTSCTFPSGDGIFWKHWIQTKDGQCGSPLVSTRDGFIVGIHSASNFTNTNNYFTSVPKNFMELLTNQEAQQWVSGWRLNADSVLWGGHKVFMVKPEEPFQPVKEATQL

Variants of: B1
Assay: raw area under fraction-flipped curve 0-4 h after induction (AUC4h, not background-subtracted), DNA-recorder readout of cleavage of the substrate (dimensionless); higher = more cleavage of the substrate by the protease variant
Conditions: temperature: 34 °C; time window: 0-4 h after rhamnose induction
Procedure: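 In vivo DNA recorder in E. coli TOP10(DE3) ΔrhaA at 34 °C. Each TEVp single-site mutant (parent TEVp 0) is paired with a single-site variant of the 7-mer TEVs (canonical ENLYFQ|S). The substrate sits between flexible linkers in a Bxb1-sfGFP-TEVs-SsrA fusion, so cleavage stabilises Bxb1 and speeds flipping of a recombination array, read by NGS. The value is the raw area under the fraction-flipped curve over 0-4 h after rhamnose induction (AUC4h), with ≥20 reads per time point. It is not background-subtracted; inactive controls average about 0.047.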
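Note: Bxb1 expression induced with 0.2% (w/v) L-rhamnose at OD600 near 0.5, cultures sampled hourly, flipped fraction per protease–substrate barcode pair counted by paired-end Illumina sequencing.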

Variant | area with substrate ENLYFQC | area with substrate ENLYFQE | area with substrate ENLYFQG | area with substrate ENLYFQH | area with substrate ENLYFQI | area with substrate ENLYFQK | area with substrate ENLYFQL | area with substrate ENLYFQN | area with substrate ENLYFQP | area with substrate ENLYFQR | area with substrate ENLYFQS | area with substrate ENLYFQY | area with substrate ENLYFQF | area with substrate ENLYFQD | area with substrate ENLYFQQ | area with substrate ENLYFQT | area with substrate ENLYFQW | area with substrate ENLYFQM | area with substrate ENLYFQV
MGESLFKGPRDYNPISSSICHLTNESDGHTTSLYGIGFGPFIITNKHLFRENNGTLVVQSLHGVFKVKDTTTLQQHLVDGRDMIIIRMPKDFPPFPQKLKFREPQREERICLVTTNFQTKSMSSMVSDTSCTFPSGDGIFWKHWIQTKDGQCGSPLVSTRDGFIVGIHSASNFTNTNNYFTSVPKNFMELLTNQEAQQWVSGWRLNADSVLWGGHKVFMVKPEEPFQPVKEATQL [R51E] | 0.116 | 0.0579 | 0.0881 | 0.0835 | 0.0707 | 0.0653 | 0.0641 | 0.0784 | 0.051 | 0.0523 | 0.107 | 0.0804 | – | – | – | – | – | – | –
MGESLFKGPRDYNPISSSICHLTNESDGHTTSLYGIGFGPFIITNKHLFRDNNGTLVVQSLHGVFKVKDTTTLQQHLVDGRDMIIIRMPKDFPPFPQKLKFREPQREERICLVTTNFQTKSMSSMVSDTSCTFPSGDGIFWKHWIQTKDGQCGSPLVSTRDGFIVGIHSASNFTNTNNYFTSVPKNFMELLTNQEAQQWVSGWRLNADSVLWGGHKVFMVKPEEPFQPVKEATQL [R51D] | 0.135 | – | – | – | – | 0.0681 | – | 0.0947 | – | 0.0662 | 0.11 | – | 0.0377 | – | – | – | – | – | –
MGESLFKGPRDYNPISSSICHLTNESDGHTTSLYGIGFGPFIITNKHLFRRNPGTLVVQSLHGVFKVKDTTTLQQHLVDGRDMIIIRMPKDFPPFPQKLKFREPQREERICLVTTNFQTKSMSSMVSDTSCTFPSGDGIFWKHWIQTKDGQCGSPLVSTRDGFIVGIHSASNFTNTNNYFTSVPKNFMELLTNQEAQQWVSGWRLNADSVLWGGHKVFMVKPEEPFQPVKEATQL [N53P] | 0.0851 | – | 0.0762 | – | 0.0509 | – | 0.0602 | – | – | – | 0.0789 | – | – | 0.0701 | 0.0595 | 0.0707 | 0.06 | – | –
MGESLFKGPRDYNPISSSICHLTNESDGHTTSLYGIGFGPFIITNKHLFRRNKGTLVVQSLHGVFKVKDTTTLQQHLVDGRDMIIIRMPKDFPPFPQKLKFREPQREERICLVTTNFQTKSMSSMVSDTSCTFPSGDGIFWKHWIQTKDGQCGSPLVSTRDGFIVGIHSASNFTNTNNYFTSVPKNFMELLTNQEAQQWVSGWRLNADSVLWGGHKVFMVKPEEPFQPVKEATQL [N53K] | 0.0944 | – | 0.0868 | – | 0.0636 | 0.0626 | 0.0607 | 0.0891 | – | 0.0604 | 0.092 | 0.0839 | 0.056 | 0.0782 | 0.0921 | – | – | 0.0837 | 0.0657
MGESLFKGPRDYNPISSSICHLTNESDGHTTSLYGIGFGPFIITNKHLFRRNNGPLVVQSLHGVFKVKDTTTLQQHLVDGRDMIIIRMPKDFPPFPQKLKFREPQREERICLVTTNFQTKSMSSMVSDTSCTFPSGDGIFWKHWIQTKDGQCGSPLVSTRDGFIVGIHSASNFTNTNNYFTSVPKNFMELLTNQEAQQWVSGWRLNADSVLWGGHKVFMVKPEEPFQPVKEATQL [T55P] | 0.0915 | – | 0.0947 | 0.066 | – | – | 0.0645 | 0.0464 | 0.054 | – | 0.0853 | – | 0.0704 | 0.0783 | – | 0.0637 | – | 0.0779 | –
MGESLFKGPRDYNPISSSICHLTNESDGHTTSLPGIGFGPFIITNKHLFRRNNGTLVVQSLHGVFKVKDTTTLQQHLVDGRDMIIIRMPKDFPPFPQKLKFREPQREERICLVTTNFQTKSMSSMVSDTSCTFPSGDGIFWKHWIQTKDGQCGSPLVSTRDGFIVGIHSASNFTNTNNYFTSVPKNFMELLTNQEAQQWVSGWRLNADSVLWGGHKVFMVKPEEPFQPVKEATQL [Y34P] | 0.0748 | – | 0.0601 | 0.0677 | 0.0418 | 0.0439 | – | – | 0.0522 | 0.0515 | 0.0502 | – | – | – | – | 0.0256 | – | 0.0481 | –
MGESLFKGPRDYNPISSSICHLTNESDGHTTSLMGIGFGPFIITNKHLFRRNNGTLVVQSLHGVFKVKDTTTLQQHLVDGRDMIIIRMPKDFPPFPQKLKFREPQREERICLVTTNFQTKSMSSMVSDTSCTFPSGDGIFWKHWIQTKDGQCGSPLVSTRDGFIVGIHSASNFTNTNNYFTSVPKNFMELLTNQEAQQWVSGWRLNADSVLWGGHKVFMVKPEEPFQPVKEATQL [Y34M] | 0.112 | – | 0.0911 | – | 0.0588 | 0.0764 | 0.0684 | 0.0711 | 0.0656 | – | 0.103 | – | – | 0.0394 | – | – | 0.057 | 0.0874 | –
MGESLFKGPRDYNPISSSICHLTNESDGHTTSLYGIGFGPFIITNKHLNRRNNGTLVVQSLHGVFKVKDTTTLQQHLVDGRDMIIIRMPKDFPPFPQKLKFREPQREERICLVTTNFQTKSMSSMVSDTSCTFPSGDGIFWKHWIQTKDGQCGSPLVSTRDGFIVGIHSASNFTNTNNYFTSVPKNFMELLTNQEAQQWVSGWRLNADSVLWGGHKVFMVKPEEPFQPVKEATQL [F49N] | 0.073 | – | 0.0742 | – | 0.0457 | 0.048 | 0.0509 | 0.0509 | 0.0825 | 0.0534 | 0.0633 | 0.0508 | 0.0364 | – | – | 0.0634 | 0.0509 | 0.0411 | 0.0537
MGESLFKGPRDYNPISSSICHLTNESDGHTTSLYGIGFGPFIITNKHLFARNNGTLVVQSLHGVFKVKDTTTLQQHLVDGRDMIIIRMPKDFPPFPQKLKFREPQREERICLVTTNFQTKSMSSMVSDTSCTFPSGDGIFWKHWIQTKDGQCGSPLVSTRDGFIVGIHSASNFTNTNNYFTSVPKNFMELLTNQEAQQWVSGWRLNADSVLWGGHKVFMVKPEEPFQPVKEATQL [R50A] | 0.102 | – | 0.0812 | – | 0.0724 | 0.0667 | 0.0937 | 0.0866 | – | 0.0681 | 0.116 | – | – | – | – | 0.0698 | 0.0708 | 0.092 | 0.058
MGESLFKGPRDYNPISSSICHLTNESDGHTTSLYHIGFGPFIITNKHLFRRNNGTLVVQSLHGVFKVKDTTTLQQHLVDGRDMIIIRMPKDFPPFPQKLKFREPQREERICLVTTNFQTKSMSSMVSDTSCTFPSGDGIFWKHWIQTKDGQCGSPLVSTRDGFIVGIHSASNFTNTNNYFTSVPKNFMELLTNQEAQQWVSGWRLNADSVLWGGHKVFMVKPEEPFQPVKEATQL [G35H] | 0.043 | – | – | 0.0416 | 0.0159 | 0.0397 | – | – | 0.0485 | – | 0.0444 | – | – | 0.0529 | – | – | 0.04 | – | –

Reference: the supplement of paper PMC12217912
